In the supplement of paper PMC12217912:
Some of the results follow. Sequences were assembled here from the parent chain. Inactive controls read about 0.05.

B1: TEV protease; numbered along this chain (parent)
chain: MGESLFKGPRDYNPISSSICHLTNESDGHTTSLYGIGFGPFIITNKHLFRRNNGTLVVQSLHGVFKVKDTTTLQQHLVDGRDMIIIRMPKDFPPFPQKLKFREPQREERICLVTTNFQTKSMSSMVSDTSCTFPSGDGIFWKHWIQTKDGQCGSPLVSTRDGFIVGIHSASNFTNTNNYFTSVPKNFMELLTNQEAQQWVSGWRLNADSVLWGGHKVFMVKPEEPFQPVKEATQL

Variants of: B1
Assay: raw area under fraction-flipped curve 0-4 h after induction (AUC4h, not background-subtracted), DNA-recorder readout of cleavage of the substrate (dimensionless); higher = more cleavage of the substrate by the protease variant
Conditions: temperature: 34 °C; time window: 0-4 h after rhamnose induction
Experimental: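 In vivo DNA recorder in E. coli TOP10(DE3) ΔrhaA at 34 °C. Each TEVp single-site mutant (parent TEVp 0) is paired with a single-site variant of the 7-mer TEVs (canonical ENLYFQ|S). The substrate sits between flexible linkers in a Bxb1-sfGFP-TEVs-SsrA fusion, so cleavage stabilises Bxb1 and speeds flipping of a recombination array, read by NGS. The value is the raw area under the fraction-flipped curve over 0-4 h after rhamnose induction (AUC4h), with ≥20 reads per time point. It is not background-subtracted; inactive controls average about 0.047.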
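Further: Bxb1 expression induced with 0.2% (w/v) L-rhamnose at OD600 near 0.5, cultures sampled hourly, flipped fraction per protease–substrate barcode pair counted by paired-end Illumina sequencing.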

Row | Variant | area with substrate ENLAFQS | area with substrate ENLCFQS | area with substrate ENLDFQS | area with substrate ENLEFQS | area with substrate ENLFFQS | area with substrate ENLGFQS | area with substrate ENLHFQS | area with substrate ENLIFQS | area with substrate ENLKFQS | area with substrate ENLLFQS | area with substrate ENLMFQS | area with substrate ENLPFQS | area with substrate ENLQFQS | area with substrate ENLRFQS | area with substrate ENLSFQS | area with substrate ENLVFQS | area with substrate ENLWFQS | area with substrate ENLNFQS | area with substrate ENLTFQS
1 | I19L | 0.0596 | 0.0781 | 0.0545 | 0.0602 | 0.107 | 0.0638 | 0.0708 | 0.0798 | 0.0875 | 0.0894 | 0.071 | 0.0464 | 0.072 | 0.0834 | 0.0656 | 0.105 | 0.0638 |  | 
2 | T30K | 0.0626 | 0.075 | 0.0698 | 0.0511 | 0.0744 |  | 0.0568 | 0.0846 | 0.0905 |  | 0.0901 |  | 0.0591 | 0.0689 | 0.069 |  |  | 0.0571 | 
3 | Y12E | 0.0678 | 0.0642 | 0.0628 | 0.0704 | 0.0811 |  | 0.0531 | 0.0775 | 0.0781 | 0.0696 |  | 0.11 |  |  | 0.0684 | 0.0812 | 0.0669 | 0.0697 | 
4 | Y12D | 0.0547 | 0.0756 | 0.0523 |  | 0.0734 | 0.05 | 0.0833 |  | 0.0906 | 0.0764 |  | 0.0546 | 0.0529 |  | 0.0567 | 0.0893 | 0.0708 | 0.0616 | 
5 | S18I | 0.0586 | 0.0624 | 0.0638 |  | 0.0763 |  | 0.0717 |  | 0.0694 | 0.0482 |  | 0.0575 | 0.0678 | 0.0868 |  |  |  | 0.0677 | 
6 | C20T | 0.0681 | 0.0572 | 0.064 | 0.0663 | 0.0761 |  | 0.0594 | 0.0772 | 0.0579 | 0.0833 | 0.0771 | 0.0524 | 0.0898 |  | 0.0565 | 0.0721 | 0.105 | 0.0512 | 
7 | C20D | 0.0445 |  | 0.0499 | 0.0408 | 0.0398 |  | 0.0694 |  | 0.0522 | 0.0448 | 0.0334 |  | 0.0422 | 0.0471 | 0.0392 |  | 0.044 | 0.0511 | 0.0648
8 | C20V | 0.0372 |  | 0.0538 | 0.0653 | 0.0825 | 0.0835 | 0.0889 | 0.0997 | 0.0892 | 0.0773 |  | 0.047 | 0.0646 | 0.0677 | 0.0678 | 0.0755 | 0.0621 | 0.0723 | 
9 | E25T | 0.0822 |  |  | 0.0608 | 0.0963 |  |  | 0.0995 | 0.0818 | 0.0754 |  | 0.0637 |  |  | 0.055 |  |  | 0.0671 | 
10 | E25Q | 0.0643 | 0.057 | 0.0562 | 0.0714 | 0.0871 | 0.0637 |  |  | 0.072 | 0.0795 |  |  | 0.0685 | 0.0731 | 0.0576 | 0.104 | 0.0599 | 0.0534 | 
11 | I43C | 0.0582 | 0.0668 | 0.0491 |  | 0.0701 | 0.0878 | 0.0685 | 0.0777 | 0.0689 | 0.0748 |  | 0.0543 | 0.0625 | 0.0595 | 0.0618 | 0.0678 |  | 0.0675 | 0.0826
12 | G2E | 0.076 |  | 0.0653 |  | 0.103 | 0.0691 | 0.0725 | 0.0899 | 0.0796 | 0.0629 |  | 0.0473 | 0.0482 | 0.0781 | 0.0511 | 0.072 | 0.066 | 0.0655 | 0.0757
13 | N24L | 0.0618 |  | 0.0616 | 0.0689 | 0.0682 |  | 0.0749 | 0.0785 | 0.0822 | 0.0495 | 0.0689 |  | 0.0752 | 0.085 | 0.0798 |  |  | 0.0723 | 
14 | P9M | 0.039 | 0.0746 | 0.0611 |  | 0.0842 |  | 0.0673 | 0.101 | 0.0893 |  |  | 0.0718 |  |  | 0.0437 |  | 0.0779 |  | 
15 | P9W | 0.0669 | 0.0535 | 0.0538 |  | 0.0821 | 0.0766 | 0.053 | 0.0792 | 0.067 | 0.0854 | 0.0854 | 0.0531 |  |  | 0.0598 |  | 0.0672 | 0.071 | 
16 | I15Y | 0.062 |  | 0.0612 | 0.0624 | 0.0796 | 0.055 | 0.066 | 0.0899 | 0.0783 |  | 0.0855 | 0.0621 | 0.0613 | 0.106 | 0.0603 |  |  | 0.0698 | 
17 | I15W | 0.0706 | 0.0611 | 0.0724 | 0.065 | 0.081 | 0.0633 | 0.0485 | 0.0758 | 0.0737 | 0.0731 |  | 0.0577 |  | 0.0268 | 0.0755 | 0.0926 | 0.0619 | 0.0795 | 
18 | I15A | 0.0586 | 0.0527 | 0.0524 | 0.0624 | 0.0898 | 0.0679 | 0.0626 | 0.0697 | 0.0751 | 0.0731 | 0.0684 | 0.0844 | 0.0717 | 0.0751 | 0.0599 |  |  | 0.0587 | 
19 | P14R | 0.0285 |  | 0.0438 | 0.0552 | 0.0867 |  |  | 0.0859 | 0.086 |  |  | 0.0506 | 0.0637 | 0.0801 | 0.0783 | 0.0788 | 0.0476 | 0.0746 | 
20 | S16W | 0.0728 | 0.0741 | 0.0695 | 0.0671 | 0.0769 |  | 0.0635 | 0.0816 |  | 0.0617 | 0.0676 | 0.0678 |  | 0.0752 | 0.055 | 0.113 | 0.0794 | 0.0568 | 0.076
21 | G37E | 0.0393 | 0.0552 | 0.0435 |  | 0.0573 | 0.044 | 0.0692 | 0.0511 | 0.041 | 0.055 |  | 0.0485 | 0.0391 | 0.0474 | 0.0488 | 0.0523 | 0.0573 | 0.0356 | 0.0538
22 | G37K | 0.0396 |  | 0.0546 |  | 0.0648 |  | 0.0601 |  | 0.0482 | 0.0692 |  | 0.0551 | 0.049 | 0.0427 | 0.0448 |  | 0.0581 |  | 0.0066
23 | N13A | 0.063 | 0.0747 | 0.0602 | 0.0714 | 0.0749 | 0.0955 | 0.0642 |  | 0.0757 | 0.0723 |  | 0.051 | 0.0663 | 0.0732 | 0.0524 |  | 0.0713 | 0.063 | 0.0383
24 | N13D | 0.123 |  | 0.06 | 0.0746 | 0.0784 | 0.0945 | 0.0709 | 0.0871 |  | 0.0663 |  | 0.0501 |  | 0.0679 |  | 0.0717 | 0.0734 | 0.0661 | 0.0796
